# Reference: the supplement of paper PMC3334620
# Over roughly 33,000 sequences, “E-score (-0.5 to 0.5)” has its median near -0.021; the highest 2% begin near 0.32. The list shows a part of the results.
# Biological target: T1, Zap1 (UniProt P47043)
# T1 sequence: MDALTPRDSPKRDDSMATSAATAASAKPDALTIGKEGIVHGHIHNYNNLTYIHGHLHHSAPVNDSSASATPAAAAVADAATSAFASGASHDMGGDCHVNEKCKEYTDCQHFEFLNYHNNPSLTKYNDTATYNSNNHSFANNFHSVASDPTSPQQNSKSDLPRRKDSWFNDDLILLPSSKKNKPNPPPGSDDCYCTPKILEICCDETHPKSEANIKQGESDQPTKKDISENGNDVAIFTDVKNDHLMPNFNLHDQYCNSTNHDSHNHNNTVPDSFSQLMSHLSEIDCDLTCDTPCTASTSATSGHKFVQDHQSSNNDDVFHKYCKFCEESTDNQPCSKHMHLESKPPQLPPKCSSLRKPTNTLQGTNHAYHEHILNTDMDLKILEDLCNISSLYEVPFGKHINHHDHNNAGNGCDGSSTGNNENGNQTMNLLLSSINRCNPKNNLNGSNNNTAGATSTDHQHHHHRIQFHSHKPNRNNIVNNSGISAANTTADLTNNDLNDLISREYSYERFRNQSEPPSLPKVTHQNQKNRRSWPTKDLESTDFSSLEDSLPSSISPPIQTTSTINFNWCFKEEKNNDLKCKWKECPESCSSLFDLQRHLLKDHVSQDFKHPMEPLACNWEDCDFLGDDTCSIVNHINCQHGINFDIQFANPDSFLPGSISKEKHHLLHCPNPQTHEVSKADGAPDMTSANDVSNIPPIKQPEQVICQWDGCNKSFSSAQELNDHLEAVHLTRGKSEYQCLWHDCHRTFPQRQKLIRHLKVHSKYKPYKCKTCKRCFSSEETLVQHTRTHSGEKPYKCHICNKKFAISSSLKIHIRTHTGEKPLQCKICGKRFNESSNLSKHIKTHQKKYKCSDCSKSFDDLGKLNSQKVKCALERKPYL
# Assay: PBM E-score (8-mer binding enrichment) (E-score (-0.5 to 0.5)); higher = stronger / more preferred TF binding; most listed sequences are background and not binding sites
# Conditions: protein concentration: 200 nM; construct: GST-full length
# Experimental: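 Universal 'all 10-mer' protein binding microarrays (Agilent AMADID 015681) probed with GST-tagged S. cerevisiae TFs (full-length or DBD) made by in vitro transcription/translation (PURExpress), about 100-200 nM. Bound TF was detected with fluorescent anti-GST. Each ungapped 8-mer (which stands for itself and its reverse complement) is scored by the PBM enrichment score (E-score), a modified Wilcoxon-Mann-Whitney statistic from -0.5 to +0.5, computed with the Universal PBM Analysis Suite. Scale: above 0.35 generally sequence-specific binding.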
row,Sequence,PBM E-score
1,GAGTACTC,-0.11
2,GCAGTGTA,-0.063
3,AGGAGCCA,-0.133
4,AACACTCA,0.0212
5,TGGTGGAA,-0.106
6,ACAGGCCG,-0.291
7,GTAAAAGA,0.0206
8,ACCAAAGT,0.0879
9,CGAAGCAG,-0.165
10,AACCAGTG,-0.0657
11,ACAGCTGG,-0.033
12,TTCCTCAA,-0.012
13,GAAAGCGC,-0.115
14,GAACCTTC,0.154
15,CCTAGACG,-0.243
16,CTAATTTA,0.0925
17,CACTGCAG,-0.0344
18,ATACCACG,0.0645
19,AGATTCGC,-0.176
20,ATGGCGTG,-0.0653
21,CGTGTACA,0.0312
22,CACTTTAA,0.117

row,Sequence,PBM E-score
1,GACCTGCC,-0.0362
2,CGGTAAAA,0.211
3,CCTTCCTC,-0.267
4,CACTAACG,-0.178
5,GCGTGACC,0.326
6,GAATATTC,-0.035
7,CACAGAGA,-0.0512
8,AAGCCCAA,-0.0803
9,CAATCTAG,0.0755
10,CAACCGGA,0.111
11,AACGTGGC,0.00227
12,CGATCCGC,-0.0876
13,ACTCGGGA,0.0288
14,AGTATTAC,0.135
15,AGTTACTG,-0.0654
16,ACTGAAAT,-0.0339
17,ATGATGTC,-0.115
18,CCCTCAGG,0.15
19,AGAAATGG,-0.021
20,CCTGGCTA,-0.076
21,CACAAGGC,-0.126
22,CAGGAGTC,-0.0562

row,Sequence,PBM E-score
1,TGAGCTCA,-0.0124
2,CATCAACA,-0.0272
3,CACATGTG,-0.0723
4,AGACTGGA,-0.178
5,AATGTCCG,-0.023
6,GAAAGCCA,-0.0639
7,CTGTCACA,-0.0635
8,AAAAATTA,0.165
9,ATGCGTGC,-0.29
10,GAATGTCC,-0.0577
11,AAGGATCA,0.106
12,AACTTTAA,0.249
13,TAGCTGGA,-0.192
14,ATGAAGAC,0.0365
15,GGGAGCTA,-0.213
16,CGTACGCC,-0.234
17,ATAAGGCA,-0.259
18,GAGCGTGA,-0.112
19,CTCGTGGA,0.0211
20,ATGAGTTG,0.0665
21,ATGTAGAA,-0.0546
22,AAATCGCC,-0.213

row,Sequence,PBM E-score
1,CACAGTTA,0.145
2,CAATCAAG,0.00432
3,CGAAAAGA,0.157
4,TGCAAACA,-0.123
5,CGAATCGA,0.00445
6,ACTAGGCG,-0.0942
7,GTTGTAGA,0.0206
8,ATCCCGCG,0.116
9,CGTTGCTC,-0.0141
10,ACGATACC,0.212
11,AAGCAGAT,0.056
12,CGTGTCTC,-0.135
13,ATGTCACC,0.116
14,TGCGATAA,0.291
15,CGTACACA,-0.0291
16,AATGGGGC,-0.124
17,AGTGGACC,-0.0131
18,ATGTCCGA,-0.0139
19,CATTAAAC,0.0948
20,CGATTTAA,0.0984
